Our source for the binding signal values is publication PMC9911399, “Two distinct binding modes provide the RNA-binding protein RbFox with extraordinary sequence specificity”.

Numbering of substitutions follows the chain as printed; changes in the protein carry UniProt numbers. The list shows a part of the results.

T1: RBFOX1 RRM (Homo sapiens, UniProt Q9NWB1 109-208)
T1 sequence: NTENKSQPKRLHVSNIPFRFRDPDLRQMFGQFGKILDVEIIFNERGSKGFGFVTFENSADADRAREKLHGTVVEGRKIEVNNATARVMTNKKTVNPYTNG

B1: UCUCCCG (DNA:RNA)
RNA: GGGAGACCGGAAUUCAGAUUGUCCUCUCCCGUUAAAUCCCGUCGUAGCCACCA
DNA 1: CAATCTGAATTCCGGTCTCCC
DNA 2: TGGTGGCTACGACGGGATT
B2: CUACCUG (DNA:RNA)
RNA: B1 RNA with U25C, C26U, U27A, C30U
DNA 1: CAATCTGAATTCCGGTCTCCC
DNA 2: TGGTGGCTACGACGGGATT
B3: UGGUAAC (DNA:RNA)
RNA: B1 RNA with C26G, U27G, C28U, C29A, C30A, G31C
DNA 1: CAATCTGAATTCCGGTCTCCC
DNA 2: TGGTGGCTACGACGGGATT
B4: UCUCUGG (DNA:RNA)
RNA: B1 RNA with C29U, C30G
DNA 1: CAATCTGAATTCCGGTCTCCC
DNA 2: TGGTGGCTACGACGGGATT
B5: GCCCAAC (DNA:RNA)
RNA: B1 RNA with U25G, U27C, C29A, C30A, G31C
DNA 1: CAATCTGAATTCCGGTCTCCC
DNA 2: TGGTGGCTACGACGGGATT
B6: GGUGACC (DNA:RNA)
RNA: B1 RNA with U25G, C26G, C28G, C29A, G31C
DNA 1: CAATCTGAATTCCGGTCTCCC
DNA 2: TGGTGGCTACGACGGGATT
B7: CAAUUGC (DNA:RNA)
RNA: GGGAGACCGGAAUUCAGAUUGUCCCAAUUGCUUAAAUCCCGUCGUAGCCACCA
DNA 1: CAATCTGAATTCCGGTCTCCC
DNA 2: TGGTGGCTACGACGGGATT
B8: CUUGCUU (DNA:RNA)
RNA: B1 RNA with U25C, C26U, C28G, C30U, G31U
DNA 1: CAATCTGAATTCCGGTCTCCC
DNA 2: TGGTGGCTACGACGGGATT
B9: UAAUUAC (DNA:RNA)
RNA: B7 RNA with C25U, G30A
DNA 1: CAATCTGAATTCCGGTCTCCC
DNA 2: TGGTGGCTACGACGGGATT
B10: GCACAUG (DNA:RNA)
RNA: B1 RNA with U25G, U27A, C29A, C30U
DNA 1: CAATCTGAATTCCGGTCTCCC
DNA 2: TGGTGGCTACGACGGGATT
B11: CGGGAUG (DNA:RNA)
RNA: B7 RNA with A26G, A27G, U28G, U29A, G30U, C31G
DNA 1: CAATCTGAATTCCGGTCTCCC
DNA 2: TGGTGGCTACGACGGGATT
B12: ACUCGUC (DNA:RNA)
RNA: B1 RNA with U25A, C29G, C30U, G31C
DNA 1: CAATCTGAATTCCGGTCTCCC
DNA 2: TGGTGGCTACGACGGGATT
B13: CGGGCUA (DNA:RNA)
RNA: B7 RNA with A26G, A27G, U28G, U29C, G30U, C31A
DNA 1: CAATCTGAATTCCGGTCTCCC
DNA 2: TGGTGGCTACGACGGGATT
B14: CGAAAUG (DNA:RNA)
RNA: B7 RNA with A26G, U28A, U29A, G30U, C31G
DNA 1: CAATCTGAATTCCGGTCTCCC
DNA 2: TGGTGGCTACGACGGGATT
B15: UAGGUUU (DNA:RNA)
RNA: B7 RNA with C25U, A27G, U28G, G30U, C31U
DNA 1: CAATCTGAATTCCGGTCTCCC
DNA 2: TGGTGGCTACGACGGGATT
B16: GUUCGCA (DNA:RNA)
RNA: B1 RNA with U25G, C26U, C29G, G31A
DNA 1: CAATCTGAATTCCGGTCTCCC
DNA 2: TGGTGGCTACGACGGGATT
B17: ACACACU (DNA:RNA)
RNA: B1 RNA with U25A, U27A, C29A, G31U
DNA 1: CAATCTGAATTCCGGTCTCCC
DNA 2: TGGTGGCTACGACGGGATT
B18: UUUCUGC (DNA:RNA)
RNA: B7 RNA with C25U, A26U, A27U, U28C
DNA 1: CAATCTGAATTCCGGTCTCCC
DNA 2: TGGTGGCTACGACGGGATT
B19: CUGCCCU (DNA:RNA)
RNA: B1 RNA with U25C, C26U, U27G, G31U
DNA 1: CAATCTGAATTCCGGTCTCCC
DNA 2: TGGTGGCTACGACGGGATT
B20: UCUGAGA (DNA:RNA)
RNA: B1 RNA with C28G, C29A, C30G, G31A
DNA 1: CAATCTGAATTCCGGTCTCCC
DNA 2: TGGTGGCTACGACGGGATT

The target in this test is T1, RBFOX1 RRM. The test can be described thus: EMSA; HiTS-Eq, 1 nM pool, 10 min; buffer printed only for the single-RNA assays: 10 mM Tris pH 7.5, 150 mM NaCl, 3.4 mM EDTA, 0.001% NP-40, 30 C. The following applies: tags: His6 N-terminal (pET28a); label: 5' 32P. Summed up: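 Purified RbFox RRM, wild type or mutant, was incubated for 10 min in 50 µL with 1 nM of a 5′-radiolabelled RNA pool carrying 7 randomized nucleotides, whose flanks were annealed to DNA oligonucleotides, over a series of increasing protein concentrations. Unbound RNA was resolved on 8% native PAGE, cut out, reverse-transcribed, barcoded by PCR and sequenced on an Illumina HiSeq 2500. Relative association constants were derived from changes in read counts for each RNA species versus the control reaction and normalised to the cognate motif.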
(In general: Mobility shift assays separate free from complexed probe on a gel.)
With B1, the binding signal was 0.00933 KA relative to UGCAUGU.

With B2, the binding signal is 0.00798 KA relative to UGCAUGU.

For B3, the binding signal was 0.0137 KA relative to UGCAUGU.

Regarding B4, the binding signal is 0.016 KA relative to UGCAUGU.

For the molecule B5, the binding signal was 0.00668 KA relative to UGCAUGU.

As for B6, the binding signal was 0.0203 KA relative to UGCAUGU.

Regarding B7, the binding signal is 0.00895 KA relative to UGCAUGU.

As to B8, the binding signal is 0.0152 KA relative to UGCAUGU.

For the molecule B9, the binding signal is 0.00873 KA relative to UGCAUGU.

In the case of B10, the binding signal is 0.0141 KA relative to UGCAUGU.

In the case of B11, the binding signal was 0.0412 KA relative to UGCAUGU.

Take B12: the binding signal was 0.00135 KA relative to UGCAUGU.

For the molecule B13, the binding signal was 0.0304 KA relative to UGCAUGU.

B14: the binding signal was 0.011 KA relative to UGCAUGU.

As to B15, the binding signal was 0.0191 KA relative to UGCAUGU.

As for B16, the binding signal is 0.0218 KA relative to UGCAUGU.

In the case of B17, the binding signal is 0.00126 KA relative to UGCAUGU.

Consider B18, for which the binding signal was 0.0305 KA relative to UGCAUGU.

Consider B19, for which the binding signal is 0.00803 KA relative to UGCAUGU.

With B20, the binding signal is 0.0109 KA relative to UGCAUGU.
